Out of some 150,000 compounds screened, about 540 (0.36%) showed an effect of 50% or more. The list shows a part of the results.
test system: Plasmodium falciparum; assay: Primary screen in NF54 nanoGlo assay, in single point, at 2uM, 72h; a lower Z score goes with more inhibition; format: functional, Erythrocyte; conditions: timepoint 72 hour

Compound | % Inhibition | Z score
Cc1nn(Cc2cccc3ccccc23)c(=O)c(C#N)c1C | -15% | 2.92
CC(C)CCNc1ccc(C(=O)N2CCC(CN3CCCC3=O)CC2)cn1 | -16% | 3.11
Cc1cc(NC(=O)CCCn2nnc3cc(S(=O)(=O)N4CCCCC4)ccc32)no1 | -2% | 0.32
CC1(C2CCN(CCN3C(=O)NC4(CCCC4)C3=O)CC2)OCCO1 | -4% | 0.76
COc1cccc([C@@H](O)Cn2cnc3c(N4CCOCC4)ncnc32)c1 | 5% | -0.77
C[C@@H]1CN(C(=O)c2ccn(C)n2)CC[C@@]1(O)C1CCOCC1 | -10% | 1.72
CNC(N)=NCC1(c2cccs2)CCCC1 | -3% | 0.35
CC(C)(C)C(=O)N1CCN(c2nc3ncccc3o2)CC1 | -13% | 1.3
CC1CCCC1NC(=O)N(C)CCOCC1CC1 (stereo not given) | -14% | 1.15
CCc1nn(C)c(NC(=O)[C@H](CC)OC)c1CC | 2% | -0.19
O=C(Nc1ccon1)c1cc(S(=O)(=O)N2CCCC2)cs1 | -7% | 1.19
CCS(=O)(=O)N1CC(CN[C@H](c2ncc[nH]2)c2cccs2)C1 | 12% | -1.38
CCC(=O)N(CC(=O)N(CCc1c[nH]c2ccccc12)Cc1ccc(Cl)cc1)CC(C)C | -4% | 0.59
COC(=O)c1ccccc1NC(=O)N1CCC(Oc2ccc(Cl)cc2)CC1 | 4% | -0.7
O=C(CCc1ccco1)Nc1ccnn1C1CCCCC1 | -7% | 0.72
COc1ccc(NC(C)=O)cc1NC(=O)c1ccc2c(c1)CCCC2 | -19% | 3.42
Cc1ccc(NC(=O)[C@@H]2Cc3ccccc3C(=O)O2)cc1OCC1CCOCC1 | -12% | 1.87
CC(CCc1ccccc1F)N[C@@H](CC(N)=O)c1ccccc1 (stereo not given in full) | 2% | -0.27
CNC(=O)CN1C[C@H](NC(=O)C2(COC)CCC2)[C@@H](c2ccccc2)C1 | -4% | 0.62
O=C(c1ccncc1)N1C[C@H](OCc2nc3ccccc3[nH]2)[C@@H](F)C1 | 11% | -1.26
O=S(=O)(CC1CC(F)(F)C1)N1CCOC[C@H]1C1CC1 | -6% | 1.09
O=C(c1ccccc1OC1CC1)N1CC2CCC(C1)O2 | -6% | 0.82

Compound | % Inhibition | Z score
Cc1ccccc1C(=O)N(CCN1CCOCC1)CC(=O)Nc1nc(-c2ccccc2)cn1-c1ccc(C(C)C)cc1 | -8% | 1.14
CC(=O)N1CCC[C@H](NC(=O)Nc2ccccc2-c2ccccc2)C1 | -11% | 1.99
O=C(CCn1cnnn1)Nc1n[nH]c(CCC2CCCC2)n1 | -10% | 1.27
Cc1cc(CNC[C@H]2CC(=O)N(C3CC3)C2)cc(C)c1OC(F)F | 6% | -0.65
CC(C)n1cc(C(=O)N2C[C@@H]3CC[C@H]2CN(C)C3)cn1 | -8% | 1.57
COc1ccccc1N1CCN(C(=O)Cn2c(C)cc3nc4n(c(=O)c32)CCCCC4)CC1 | -13% | 1.51
CCCc1[nH]ccc1C(=O)N[C@@H](CC)CC#N | -17% | 1.41
CC[C@H](C)Cc1nc(CN2CCCC2=O)n(-c2cccc(C)n2)n1 | -5% | 1.01
O=S(=O)(NCc1cscn1)c1ccc(C2CCCCC2)cc1 | -7% | 1.11
COc1cc(OC)c(NC(=O)CN2CCC(C(=O)N3CC(C)CC(C)C3)CC2)cc1Cl (stereo not given) | -15% | 1.47
Cc1ccc(OCC(=O)NC2(C(=O)O)CCC2)c(C)c1 | -10% | 1.33
C[C@H]1CCCN(c2ccc(Cl)cc2NC(=O)CCN2CCCCC2=O)C1 | -9% | 1.18
COc1ccc(N(C)CCC(=O)NC(N)=O)cc1OC | 3% | -0.44
C#Cc1cccc(N(C)S(=O)(=O)N2CCOC(C)(C)C2)c1 | -6% | 0.48
Cc1cccc(Cn2c(=O)c3nscc3n(Cc3c(C)noc3C)c2=O)c1 | -1% | 0.11
O=C(Cc1ccccc1)N1CCN(C(=O)c2cnn3ccccc23)CC1 | -5% | 0.82
COc1cccc(-c2noc(-c3cnc(OC)nc3C)n2)c1 | -8% | 0.93
Cn1cc([C@H](NCc2cnc3cnccn23)c2ccc(F)cc2)cn1 | -20% | 3.79
COC[C@@H](O)CCNC(=O)Nc1ccc(Br)c(C)c1F | 5% | -0.93
CC(CC#N)NC(=O)C1(F)CN(C(=O)OC(C)(C)C)CC12COC2 (stereo not given) | -1% | 0.13
COC(=O)C(Cc1c[nH]c2cc(F)ccc12)NC(=O)C1C2CCCC21 (stereo not given) | -14% | 1.55
Cc1nc(C)c(C(=O)O[C@H](c2c(C)nn(C)c2C)C(F)(F)F)o1 | 1% | -0.08

Compound | % Inhibition | Z score
Clc1cc2c(cc1NC1CCCCC1)OCO2 | 4% | -0.52
Cc1ccc(NC(=O)C2(NC(=O)c3ccccn3)CCCCC2)cc1Br | -44% | 5.22
C=CCNC(=O)CN(CC)c1cccc(O)c1 | -10% | 1.03
CC1CN(c2ncc(F)cn2)CCN(c2ncc(F)cn2)C1 | -11% | 2.06
OC[C@H](NCc1noc(-c2ccsc2)n1)c1ccccc1 | -12% | 1.59
Cc1sc(-c2ccc(C(F)(F)F)cc2)nc1-c1ccc2c(c1)NC(=O)CO2 | -14% | 1.82
Cc1ccccc1NC(=O)N1CCCC[C@H](c2ccccc2)C1 | -14% | 2.14
Cc1cnccc1-c1ccc(C(=O)N2CC[C@H](O)C[C@@H]2C)s1 | -9% | 1.75
O=C([C@@H]1CCCN1C1CC1)N1CCC2(CC1)OCCc1ccccc12 | -14% | 1.46
C[C@H](O)CCOc1ccc2c(n1)CCC2 | -3% | 0.48
CCn1c(CN2CCC[C@H]2c2nc(-c3ccncc3)no2)nc2ccccc21 | -10% | 1.45
CCc1nnc2n1CCN(c1cccc(F)c1C#N)C2 | -2% | 0.27
CC(C)(c1ccccc1)c1nnc(NC(=O)NC[C@H]2CCOC2)s1 | 11% | -1.48
O=S(=O)(NC[C@]1(O)CCCc2ccccc21)c1cncc(F)c1 | 0% | 0.01
COc1ccc(C(=O)N(Cc2ccc(OS(=O)(=O)c3ccc(F)cc3)cc2)C(C)C)c(OC)c1 | -14% | 1.5
CC(C)(C)OC(=O)N1C[C@@H](F)C[C@@H]1C(=O)NCC=Cc1cccnc1 | -10% | 1.86
C[C@@]1(C2CCN(C(=O)Nc3cccc(F)c3)CC2)NC(=O)NC1=O | 2% | -0.25
O=C(NCc1nnc2n1CCC2)c1ccc2c(c1)OCO2 | 2% | -0.37
CCCc1noc(-c2cccn3c(CC(=O)N4CCCCCC4)nnc23)n1 | -8% | 1.36
CCn1nc([C@H]2CCOC2)nc1Cn1nc2ccccc2n1 | 12% | -1.57
CC(C)C(C)NC(=O)c1cc(Br)c(C(=O)NC(C)C(C)C)cc1Br (stereo not given) | 3% | -0.51
Cc1nc2cc(C(=O)NCC#C[C@@H]3CCCCO3)ccc2c(=O)[nH]1 | 7% | -0.97

Compound | % Inhibition | Z score
CC(=O)N[C@@H](C)C(=O)Nc1ccc(F)cc1C | 7% | -1.02
COc1ccc(CNc2ncnc3c2nc2n3CCCCC2)cc1 | -6% | 1.16
Cc1c(CN[C@@H](Cc2c(F)cccc2Cl)c2ccco2)cnn1C | -11% | 1.16
CN(CC(=O)NC1CC1)C(=O)c1cc2c(ccc3ccccc32)[nH]1 | -1% | 0.14
Cn1c2c(cc(C(=O)N3CCOC[C@@H]3CC(N)=O)c1=O)CCCC2 | -4% | 0.48
CCCCn1ncnc1CCc1n[nH]c2c1CCCC2 | -12% | 1.69
COc1ccc(-c2cn[nH]c(=O)n2)cc1 | -17% | 1.55
O=C(NC1CCCC1)N(CC1CCCCC1)C1CC1 | -5% | 0.49
CC[C@@H](C(=O)Nc1ccc(Cl)cc1C)n1nc(C)c2nn(-c3ccccc3)c(C)c2c1=O | -4% | 0.54
O=C(c1n[nH]c2c1CCC2)N1CCC(c2nnc3n2CCCCC3)CC1 | -7% | 1.17
Cc1cc(C)n(CCN2CCN(S(=O)(=O)c3cccs3)CC2)n1 | -7% | 1.28
Cc1cccc(OCCn2c(=O)ccc3ccccc32)c1C | 13% | -1.75
Cc1cccc(O[C@H]2CCN(S(=O)(=O)c3cc(Cl)ccc3C)C2)n1 | -15% | 2.92
COCC(=O)N[C@H]1[C@H](c2cccs2)N(C(=O)c2ccccc2)CC[C@@]1(C)O | 14% | -2.16
Cc1noc(C)c1S(=O)(=O)N(C)CCOc1ccc(Br)cc1 | 31% | -3.94
CC(C)C(=O)N(Cc1ccccc1)C[C@H]1CC(c2ccccc2)=NO1 | -8% | 1.24
O=c1c(Nc2ccccc2Cl)nccn1C1CC1 | -11% | 1.28
COc1ccc(-c2noc(CN3CCc4ccccc43)n2)cc1OC | -13% | 1.45
O=C(O)C(c1cccc(Cl)c1Cl)N1C[C@@H](CO)[C@H](c2ccsc2)C1 (stereo not given in full) | -14% | 2.03

— ChEMBL document CHEMBL4888484, “Replenishing the malaria drug discovery pipeline: Screening and hit evaluation of the MMV Hit Generation Library 1 (HGL1) against asexual blood stage Plasmodium falciparum ,using a nano luciferase reporter read-out” (2022)
